Measurements taken from PubChem BioAssay AID434955 (Southern Research Specialized Biocontainment Screening …, 2010).
Some of the results follow. Further columns of the screen follow, without active or inactive calls. Most of these compounds were active or inconclusive in the main read-out, so they are no random draw.

Test: beta-lactam sensitization of Mtb H37Rv, H37Rv (AID 434955);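 also: growth measured after seven days incubation then overnight dye step; 0% = bacteria only wells and 100% = bacteria with antibiotic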
Settings: M. tuberculosis H37Rv growth with meropenem, percent inhibition; measured here: primary screen without meropenem; at 25 µM

| Compound | inhibition [%] |
| --- | --- |
| COC(=O)C(C)Sc1nc2c(c(-c3ccc(OC)cc3)c1C#N)-c1ccccc1C2=O (stereo not drawn) | 2.5 |
| COc1ccccc1CN1CC(C(=O)NCc2ncccc2C)CCC1=O (stereo not drawn) | 0.53 |
| NC(=S)N/N=C/c1ccc(/C=N/NC(N)=S)cc1 | -2.77 |
| CCN(CC)C1CCN(C(=O)c2ccc(OC3CCN(CCc4ccccc4)CC3)cc2)C1 (stereo not drawn) | -13.9 |
| COc1ccc(C(=O)O)cc1NC(=S)NC(=O)C(c1ccccc1)c1ccccc1 | 10.1 |
| Cc1ccc(C2CC(c3ccc(C)cc3)n3nc(N)nc3N2)cc1 (stereo not drawn) | 3.75 |
| CC(=O)NC(Cc1ccc(F)cc1)C(=O)N1CCN(C(=O)NCc2ccccc2)CC1 (stereo not drawn) | 1.65 |
| CC1Cc2ccccc2N1c1ncnc2c1nnn2Cc1ccccc1 (stereo not drawn) | 4.96 |
| Cc1cc(NC(=O)c2cc3n(n2)C(C(F)(F)F)CC(c2ccc(Cl)c(Cl)c2)N3)no1 (stereo not drawn) | -10 |
| CC1CN(C2CCCCC2)c2nc3c(c(=O)[nH]c(=O)n3C)n2C1 (stereo not drawn) | 13.3 |
| c1ccc(Cn2nnc3c(NCCN4CCOCC4)ncnc32)cc1 | -3.24 |
| Fc1ccc(F)c(CN2CCN(c3ncccn3)CC2)c1 | 1.38 |
| Cc1c(C(=O)N2CCN(CCc3ccccc3)CC2)oc2ccccc12 | 3.01 |
| CCOC(=O)C1CCN(Cc2ccc(OC)cc2OC)CC1 | -13.1 |
| CCN(CC)CCCN1C(=O)C(O)=C(C(=O)c2cc3cccc(OC)c3o2)C1c1ccncc1 (stereo not drawn) | 0.25 |
| Cc1ccc(C(=O)/C=C/c2cc(Br)cc(Br)c2O)o1 | 39.6 |
| CC1CCN(S(=O)(=O)c2ccc(Cl)cc2Br)CC1 | 2.78 |
| Cc1c(NC(=O)c2noc3c2CCc2ccccc2-3)c(=O)n(-c2ccccc2)n1C | 43 |
| CSCC(=O)Nc1ccc(F)c(Cl)c1 | -0.69 |
| Cc1ccc(CN2C(=O)N/C(=C\c3ccc(-c4ccc(C(=O)O)cc4C)o3)C2=O)cc1 | 37.5 |
| S=c1[nH]nc(COc2ccccc2)n1/N=C/c1ccc(Br)cc1 | -4.69 |
| COc1ccc(/C=N/NC(=O)CNc2n[nH]c(=O)[nH]c2=O)cc1OC | 0.25 |
| CCCCn1c(N)c(N(CC(C)C)C(=O)c2cccc(S(=O)(=O)N3CCCCCC3)c2)c(=O)[nH]c1=O | 2.17 |
| COc1cc(C)ccc1OCc1cc(C(=O)NCc2ccncc2)no1 | -1.26 |
| CCCOc1ccc(C(=O)CCN2CCCCC2)cc1 | 23.5 |
| COc1ccc(Cc2nn3c(-c4ccccc4OC)nnc3s2)cc1 | -1.03 |

| Compound | inhibition [%] |
| --- | --- |
| CSc1ccc(NC(=O)NCCCN2CCC(Cc3ccccc3)CC2)cc1 | 7.66 |
| CC(=O)c1c(N2CCN(Cc3ccccc3)CC2)[nH]c(-c2ccccc2)nc1=S | -2.96 |
| CCOC(=O)Cn1nc(-c2ccc(C)cc2)ccc1=O | -1.62 |
| CN1CCN(C(=O)CN(C2CCCCC2)S(=O)(=O)c2ccc(Br)cc2)CC1 | -3.48 |
| COc1cccc(NC(=O)Cn2cc3c(n2)CCCCC3)c1 | -6.53 |
| CCCCSCCCNC(=O)CS(=O)Cc1nc(-c2cccc(C)c2)oc1C (stereo not drawn) | 71.6 |
| COc1ccc(C2(CNC(=O)c3cc([N+](=O)[O-])cc([N+](=O)[O-])c3)CCCC2)cc1OC | 54.8 |
| O=C(COc1ccc2ccc(=O)oc2c1)NCc1ccccn1 | 1.95 |
| COc1ccc(C(=O)N2CCN(C)C(C)C2)cc1OC1CCN(C(C)=O)CC1 (stereo not drawn) | 1.61 |
| COC(=O)C1=C(C)N(CC2CCCO2)C(=O)C1 (stereo not drawn) | -1.5 |
| O=C(CN1CCC(NC(=O)c2cccc(F)c2)CC1)NCc1ccccc1F | -1.22 |
| CCOC(=O)N1CCN(C(=O)COCc2cc(-c3ccc4c(c3)OCO4)on2)CC1 | 3.11 |
| Cc1ccc(Cn2c(CN3CCN(C(=O)c4ccco4)CC3)nc3c2c(=O)n(C)c(=O)n3C)cc1 | -9.23 |
| O=C(CCn1c(=S)[nH]c2ccccc2c1=O)NCC1CCCO1 (stereo not drawn) | -1.75 |
| Cc1cc(=O)oc2c(CN3CCCC3)c(O)c(Cl)cc12 | -7.8 |
| CCOC(=O)Nc1ccc(S(=O)(=O)N2CCOCC2)cc1 | -6.68 |
| CSc1cccc(NC(=S)NC(=O)CCc2ccccc2)c1 | 6 |
| Cc1cc(C(=O)Nc2c(F)cc(F)cc2Br)no1 | 1.51 |
| O=[N+]([O-])c1cc(Cl)cc(/C=N/NC(=S)Nc2cc(S(=O)(=O)N3CCOCC3)ccc2Cl)c1O | 9.17 |
| CCc1noc(C)c1C(=O)NC1CC(C)(C)Cc2c1cnn2-c1ccccc1 (stereo not drawn) | 11.3 |
| CSc1ccccc1OCc1cc(C(=O)NC(C)Cc2cccc(C)n2)no1 (stereo not drawn) | 6.21 |
| CN(CCc1ccccn1)C(=O)c1cc(COc2ccc(F)cc2F)on1 | 9.49 |
| O=C(O)C1C2C=CC(C2)C1C(=O)Nc1cccc(Cl)c1 (stereo not drawn) | 4.06 |
| CCCc1cc(=O)oc2cc(O[C@@H]3O[C@H](CO)[C@@H](O)[C@H](O)[C@H]3O)ccc12 | -2.18 |
| CCOC(=O)Cn1c(C)cc(=O)c2cccc(C)c21 | 16.2 |
| C=Cc1cccc(NC(=O)c2ccc(NC(=O)c3ccco3)cc2)c1 | 12.4 |

| Compound | inhibition [%] |
| --- | --- |
| CC1CCN(C(=O)CSc2nc(C(C)C)nc3c2c(=O)n(C)c(=O)n3C)CC1 | 3.31 |
| CC1(C)Cc2[nH]c3ccccc3c2C(C)(C)N1 | -4.68 |
| COc1ccc(N2CC(C(=O)Nc3nnc(SCC(=O)NCC4CCCO4)s3)CC2=O)cc1 (stereo not drawn) | 9.67 |
| COC(=O)[C@H](CCSC)NC(=O)NCCc1ccccc1F | 0.94 |
| Cn1c(Cn2c(=O)sc3ccccc32)nnc1SCc1cccnc1 | -0.68 |
| O=C(/C=C/c1cccc([N+](=O)[O-])c1)Nc1cccc(NC(=O)c2ccco2)c1 | 1.46 |
| O=C(NNC1=C(C(=O)C(F)(F)F)CCC1)c1cccc(O)c1 | 3.25 |
| O=C(CSc1ccc2nnc(-c3cccnc3)n2n1)Nc1ccc(F)cc1 | -0.15 |
| COc1c(NC(C)=O)c2ccccc2c2ccccc12 | 1.51 |
| CCn1c(=O)c(C(=O)NCCc2ccc(OC)c(OC)c2)c(O)c2ccccc21 | 6.36 |
| Cn1c(=O)c2[nH]c(CNCc3ccccc3Cl)nc2n(C)c1=O | 17.2 |
| C[n+]1ccccc1/C=C/c1ccc([N+](=O)[O-])cc1 | 1.42 |
| Cc1ccc(CNC(=O)CSc2nnc(CNC(=O)c3ccccc3)o2)cc1 | 13.1 |
| CCCCCCc1nc(C(N)=O)c2[nH]c(=O)n(-c3ccc(OCC)cc3)c2n1 | 9.43 |
| CC(=O)Nc1ccc(SCC(=O)c2cc(C)n(C)c2C)cc1 | 34.4 |
| Cc1nnnn1/C(=C\c1ccccc1)C(=O)OCC(=O)Nc1ccc(Cl)cc1F | 39.6 |
| O=C(N[C@@H](Cc1ccccc1)C(=O)CCl)OCc1ccccc1 | 29.7 |
| c1ccc(-c2ccccc2OCCN2CCCCC2)cc1 | -12.7 |
| Cc1c(NC(=S)NC(=O)c2ccccc2Br)c(=O)n(-c2ccccc2)n1C | 2.84 |
| O=C(N/N=C/c1ccc(-c2cccc(C(F)(F)F)c2)o1)c1ccccc1O | 37.8 |
| COc1ccccc1NC(=O)CSC1CC(=O)N(c2ccc3c(c2)OCO3)C1=O (stereo not drawn) | 4.63 |
| COc1ccc(C(=O)Nc2ccnn2C2CCN(Cc3ccncc3)CC2)cc1 | 2 |
| C/C(=N\NC(=O)c1cc(Br)ccc1O)c1ccccn1 | 28.2 |
| O=C(c1ccc(F)cc1Cl)N1CCN(S(=O)(=O)c2cccs2)CC1 | -4.19 |
| COc1ccc(C2C(C#N)=C(SCC(=O)Nc3ccc(C)cc3)NC3=C2C(=O)CC(C)(C)C3)cc1 (stereo not drawn) | 35.6 |
| O=C(c1ccc(NS(=O)(=O)c2cccc(F)c2)cc1)N1CCCC1 | -2.75 |

| Compound | inhibition [%] |
| --- | --- |
| C/C(=N/NC(=O)c1ccc(Br)o1)c1cccc(NC(=O)c2ccc(F)cc2)c1 | -5.11 |
| Cc1ccc(NS(=O)(=O)c2c(C)[nH]c(C)c2C(=O)N2CCCC2)cc1 | 2.46 |
| O=C(NC1CC1)c1ccc(CS(=O)c2ccccc2)o1 (stereo not drawn) | -6.45 |
| CC1C/C(=N/NC(=O)c2cccc(F)c2)c2ccc(O)cc2C1 (stereo not drawn) | 99.2 |
| Cc1cccc(C(=O)NNC(=S)NC(=O)c2cccs2)c1 | 94.3 |
| COc1ccc(OC2CCN(S(=O)(=O)c3ccc(F)cc3)CC2)cc1 | 3.59 |
| CC(=O)CSc1nnc(-c2ccc(S(=O)(=O)N3CCC(C)CC3)cc2)o1 | -8.11 |
| CCOC(=O)COc1ccc2nsnc2c1 | 33.8 |
| O=C(CS(=O)(=O)c1cn(CC(=O)N2CCCC2)c2ccccc12)Nc1ccccc1F | 2.67 |
| CCOc1cc(C(=O)OCc2ccc(C(=O)OC)o2)cc(Br)c1OC | 94.4 |
| COc1ccc(C)cc1S(=O)(=O)N1CCCC(C(=O)N2CCN(c3ccccc3)CC2)C1 (stereo not drawn) | 4.56 |
| Cc1cccc(C)c1-n1c(C)cc(/C=C2\C(=O)NN(c3ccccc3)C2=O)c1C | 34.1 |
| O=C(NC(Cc1c[nH]c2ccccc12)c1nnc2n1CCCCC2)c1ccc(Cl)cc1 (stereo not drawn) | 2.55 |
| COC(=O)c1ccsc1NC(=O)CCS(=O)(=O)c1ccccc1 | 1.52 |
| N#C/C(=C\c1c(N2CCCCC2)nc2ccccn2c1=O)C(=O)NC1CCS(=O)(=O)C1 (stereo not drawn) | -6.35 |
| C=CCn1c(SCC(=O)c2cc(C)n(CC3CCCO3)c2C)nnc1-c1ccccc1 (stereo not drawn) | -8.46 |
| CC1CCCN(S(=O)(=O)c2coc(C(N)=O)c2)C1 (stereo not drawn) | 0.93 |
| CCOC(=O)CSc1nc2c(c(=O)[nH]c(=O)n2C)n1C/C=C(/C)Cl | 1.87 |
| O=C(/C=C/c1cccnc1)c1ccc(O)cc1 | 2.21 |
| O=C(O)CCC1c2cc3c4cc2OC2Oc5cc6c(cc51)C(CCC(=O)O)c1cc5c7cc1OC(O6)c1cc6cc(c1)Oc1cc(cc(C(=O)O)c1)Oc1cc8cc(c1)C(Oc1cc(c(cc1C5CCC(=O)O)C3CCC(=O)O)OC(O4)c1cc(cc(c1)Oc1cc(cc(C(=O)O)c1)O8)Oc1cc(cc(C(=O)O)c1)Oc1cc(cc2c1)Oc1cc(cc(C(=O)O)c1)O6)O7 (stereo not drawn) | 0.26 |
| Cc1ccc(C)c(CSC2=NCCN2S(=O)(=O)c2ccccc2)c1 | 9.04 |
| COc1ccc(N(CC(=O)Nc2ccc(C)cn2)S(=O)(=O)c2c(C)noc2C)cc1 | 2.53 |
| CCC(C)NC(=O)c1ccc(NC(=O)C2CCCO2)cc1 (stereo not drawn) | -2.41 |
| O=[n+]1c2c(n([O-])c3c1CCCC3)CCCC2 | -2.94 |
| O=C(COCc1cc(-c2ccc3c(c2)OCO3)on1)N1CCCCC1 | 0.53 |
